# Screen size: about 420,000 compounds; about 50,000 (12%) were called active. The shares of active, inactive and inconclusive entries below differ from those in the screen. Calls come from the whole dose curve; as a rule, active = well fitted inhibition curve with a large enough effect; inconclusive = small, poorly fitted or top-dose-only effect; inactive = flat fitted curve, though single readings scatter. No potency is given beside an inconclusive call; the fits are too rough.
# Assay: qHTS for Inhibitors of human tyrosyl-DNA phosphodiesterase 1 (TDP1): qHTS in cells in presence of CPT; note: nearly all actives have a fitted effect of over 55% in size
# Details: chicken DT40 Tdp1-/-;hTDP1 cells + 20 nM CPT, ATP luminescence, 48 h; activity change, negative = growth inhibition: at 46.2 µM (top of the series) unless noted
# Procedure, shortened: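 Chicken DT40 Tdp1-/- cells complemented with human TDP1, 400 cells/well, exposed to compounds plus 20 nM camptothecin for at least 48 h at 37 C; viability read as ATP content by CellTiter-Glo luminescence.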
# % is set by controls: 0 for no effect and ±100 for the full control effect; potency is the fitted concentration of half-maximal effect; tags give direction and shape of the fitted curve.
Structure (SMILES),"activity change, negative = growth inhibition",Potency
O=C(Nc1ccnn1C1CCN(C(=O)c2ccc(C(F)(F)F)cc2)CC1)C1CC1,inactive: -12.3%,–
CC1CCCCN1S(=O)(=O)c1cc2c3c(c1)CC(=O)N3CCC2 (stereo not given),inactive: -18%,–
COC(=O)c1sccc1-n1cccc1C(=O)C(=O)Nc1ccc(F)cc1,inactive: 9.98%,–
CC(=O)NN1C(=O)/C(=C\c2ccc(Cl)cc2)SC1=S,–,"inconclusive [inhibitor, partial curve]"
CSc1ncnc2c1ncn2CCCN(C)CCc1ccccn1,inactive: 6.52%,–
Cc1cc(C)c2c(c1)OC(=O)CC2c1ccccc1C (stereo not given),–,"inconclusive [inhibitor, single point]"
CCCOc1ccccc1C1NC(=O)NC(C)=C1C(=O)OCCOC(C)C (stereo not given),–,"inconclusive [inhibitor, single point]"
O=C(Cn1c(-c2cccs2)cc2ccccc21)NCc1ccccc1Br,–,"inconclusive [inhibitor, single point]"
COC(=O)c1ccc2nc(-c3ccc4c(c3)OCO4)cn2c1,inactive: -10.7%,–
COc1ccc(-n2c(CCc3ccccc3)nnc2SCC(=O)c2ccc(Cl)cc2)cc1,–,"inconclusive [inhibitor, single point]"
O=C(NNC(=O)c1cc(-c2cccnc2)nc2ccccc12)Nc1ccc(Cl)cc1,–,"inconclusive [inhibitor, single point]"
COC(=O)c1ccc(C(=O)N2CCCC(C)(C(=O)NS(=O)(=O)C3CC3)C2)cc1 (stereo not given),–,"inconclusive [inhibitor, full curve]"
CCc1ccc(C2CC(c3cccc(Cl)c3)n3nc(N)nc3N2)cc1 (stereo not given),–,active: 14.6 µM
CNC(=O)NC(=O)Cn1cnc2sc(-c3ccccc3)cc2c1=O,inactive: 0.394%,–
CCC1CCCCN1C(=O)c1cc(COc2ccc3ncccc3c2)on1 (stereo not given),–,active: 1.84 µM
CC(C)Cc1ccc(CC(=O)O)cc1,inactive: 3.19%,–
CCCCn1nc(NC(=O)CC)c2cc3cc(OC)ccc3nc21,–,"inconclusive [inhibitor, single point]"
COc1ccc(OC)c(C2C3=C(N=c4s/c(=C\c5cccc(O)c5)c(=O)n42)c2ccccc2CC3)c1 (stereo not given),–,"inconclusive [inhibitor, single point]"
Cc1ccc(-c2nc(CS(=O)(=O)CC(=O)NCc3ccccc3Cl)c(C)o2)cc1,–,"inconclusive [inhibitor, single point]"
Cc1cc2nc(-c3ccc(F)cc3)c(Cc3ccccc3)n2c(C)c1Br,–,active: 20.6 µM
Cc1cccc(CNC(=O)CN2C(=O)CCCc3ccccc32)c1,inactive: -26.4%,–
CCN(CC)C(=O)C1=C(C)N(CCCOC)C(=O)C(CC(=O)NC2CC2)C1 (stereo not given),inactive: -3.57%,–
COc1ccc(S(=O)(=O)N2c3ccccc3OCC2C)cc1 (stereo not given),–,active: 0.58 µM
COc1cccc(C(=O)Nc2ccccc2-c2nc3ccccc3s2)c1,inactive: -3.74%,–
CCc1cccc(C)c1NC(=O)CN1C(=O)C2(SCC(=O)N2c2cc(C)cc(C)c2)c2ccccc21 (stereo not given),–,active: 18.4 µM

Structure (SMILES),"activity change, negative = growth inhibition",Potency
CCOC(=O)c1c(NC(=O)c2ccccc2)sc2c1CCc1ccccc1-2,–,"inconclusive [inhibitor, single point]"
CCN(C(=O)COC(=O)/C=C/c1cccc(Br)c1)C1CCS(=O)(=O)C1 (stereo not given),inactive: 3.07%,–
CCCN1CCC(=O)N([C@H](CSc2ccc(OC)cc2)c2ccccc2)CC1,–,"inconclusive [inhibitor, single point]"
CCOc1ccc(NC(=O)Cc2ccc(S(=O)(=O)N3CCCCC3)cc2)cc1OCC,–,"inconclusive [inhibitor, single point]"
COc1cc2c(C#CCCO)c(-c3ccsc3)oc(=O)c2cc1OC,–,"inconclusive [inhibitor, single point]"
CC1=C(C(=O)Nc2cccc(C(F)(F)F)c2)C2(CCCCC2)OC1=O,–,"inconclusive [inhibitor, single point]"
CCc1cc(C(=O)N2CCCC(C(=O)c3ccc(Oc4ccccc4)cc3)C2)n(C)n1 (stereo not given),–,active: 10.3 µM
Cn1nccc1C(=O)N1CCN(c2cccc(Cl)c2)CC1,–,"inconclusive [inhibitor, single point]"
COc1ccc(/C=N/NC(=O)c2ccc(N(C)S(=O)(=O)c3ccccc3)cc2)cc1,–,"inconclusive [inhibitor, single point]"
COc1ccccc1NC(=O)c1ccc(NC(=O)COC(=O)C2CC2C)cc1 (stereo not given),inactive: -13.1%,–
CCSCCOC(=O)C1=C(C)NC(=O)NC1c1ccc2c(c1)OCO2 (stereo not given),–,"inconclusive [inhibitor, single point]"
Cc1ccccc1CNC(=O)c1sc2ncnc(N(C)C3CCCCC3)c2c1C,–,"inconclusive [inhibitor, single point]"
COc1ccccc1NC(=O)N(Cc1ccco1)Cc1cc2ccc(C)c(C)c2[nH]c1=O,–,active: 3.66 µM
O=S(=O)(c1ccc2[nH]c3c(c2c1)CCCCC3)N1CCN(c2cccc(Cl)c2)CC1,–,active: 18.4 µM
Cc1oc(-c2cccc(Cl)c2)nc1CN1CCCC(C(=O)NCc2ccc(Cl)cc2)C1 (stereo not given),–,active: 8.2 µM
CC1(C(=O)N2CC3(CC(c4cccc(NC(=O)COc5ccc(Cl)cc5)c4)=NO3)C[C@@H]2C(N)=O)CC1 (stereo not given in full),–,active: 13 µM
CC(C)CC(=O)NC(NC(=S)Nc1cccc2cccnc12)C(Cl)(Cl)Cl (stereo not given),–,active: 8.2 µM
CC12CCC(=O)N1C(C(=O)NCc1ccccc1F)CS2 (stereo not given),inactive: -17.8%,–
COc1ccc(NC(=O)CN2CCCC2c2cccs2)cc1S(=O)(=O)N1CCCCC1 (stereo not given),–,"inconclusive [inhibitor, single point]"
Cn1cnnc1SCC(=O)Nc1nc(-c2ccccc2)cs1,inactive: -8.55%,–
CC1CCN(CCCNC(=O)c2ccc3c(Cl)c4c(nc3c2)CCCC4)CC1,–,active: 13 µM
CCOc1ccccc1Nc1nc(-c2cccnc2)cs1,–,"inconclusive [inhibitor, single point]"
Cc1cc(C)n(-c2ccc(C(=O)Nc3sccc3C(N)=O)cc2)n1,–,"inconclusive [inhibitor, single point]"
Cc1cc(C)nc(N2CCC(C(=O)NCC3CCCCC3)CC2)n1,inactive: -15.6%,–
Cc1cccc(NC(=O)c2sc(-n3nc(C)c(CCC(C)C)c3C)nc2C)c1C,–,"inconclusive [inhibitor, single point]"

Structure (SMILES),"activity change, negative = growth inhibition",Potency
Cc1ccc(S(=O)(=O)Oc2cccc(N3C(=O)C4CC=CCC4C3=O)c2)cc1 (stereo not given),–,active: 16.4 µM
O=C(c1ccncc1)N(c1ccc(N2CCOCC2)cc1)C(c1ccccc1)c1nc2ccccc2[nH]1 (stereo not given),–,"inconclusive [inhibitor, partial curve]"
CC(C)CC(=O)NC(=S)Nc1ccccn1,–,"inconclusive [inhibitor, single point]"
CCN1C(=O)C(=O)N(CC(=O)Nc2ccccc2OC(F)F)C1=O,inactive: 8.02%,–
COc1ccc(-n2c(C)cc(C(=O)COc3ccc(-n4cnnn4)cc3)c2C)cc1,–,"inconclusive [inhibitor, single point]"
O=C(O)Cc1c[nH]c2ccccc12,inactive: 4.06%,–
O=C(N/N=C/c1ccccn1)c1cccc(NC(=O)c2ccc(Cl)cc2)c1,–,"inconclusive [inhibitor, single point]"
O=C(COC(=O)c1ccc(F)cc1F)NCc1ccc2c(c1)OCO2,inactive: -6.2%,–
Cc1cccc(C(=O)NCC(=O)OC(C)C(=O)Nc2ccc(Cl)cn2)c1 (stereo not given),–,"inconclusive [inhibitor, full curve]"
N#CC(c1ccccc1F)(c1ncc(C(F)(F)F)cc1Cl)N1CCOCC1 (stereo not given),inactive: -7.21%,–
OCC#Cc1ncc(C(F)(F)F)cc1Cl,–,active: 5.17 µM
O=c1c2cc3c(nc2ncn1Cc1ccc(Cl)cc1)CCCC3,–,"inconclusive [inhibitor, single point]"
O=C(Nc1ccc(Cl)c(Cl)c1)Nc1nnc(CSc2ccccc2)s1,–,active: 2.59 µM
O=C(C1CC1)N1CCc2cc(Br)cc(S(=O)(=O)N3CCCCCC3)c21,–,"inconclusive [inhibitor, single point]"
COC(=O)[C@]12CCCCC=C1N(Cc1ccc(Cl)cc1Cl)C(=O)[C@H](CC(=O)N1CCN(C(=O)C3CC3)CC1)C2,–,"inconclusive [inhibitor, single point]"
COc1ccc2c(c1OC)C(=O)N1C2SC[C@H]1C(=O)NC1CCCC1 (stereo not given in full),–,"inconclusive [inhibitor, single point]"
COC(=O)c1ccc2c(c1)N(Cc1nc(-c3ccc(Cl)cc3)oc1C)C(=O)C1CCCN21 (stereo not given),–,active: 20.6 µM
O=C(NCCCN1CCOCC1)c1cc(-c2ccc(Cl)cc2)on1,–,"inconclusive [inhibitor, single point]"
CC(C)NC(=O)CSc1nc2ccccc2n1-c1ccccc1,–,"inconclusive [inhibitor, single point]"
CC1CC(C)CN(c2ncnc3c2cnn3-c2ccc(Cl)cc2)C1 (stereo not given),–,"inconclusive [inhibitor, single point]"
O=C(NCCN1CCOCC1)c1cc2c(=O)n3ccccc3nc2n1Cc1ccccc1,inactive: -1.38%,–
O=C(Cn1cnc2c(OCc3ccccc3)ncnc21)NCCCc1ccccc1,inactive: -28.1%,–
COc1ccc(Cl)cc1NC(=O)CSc1nnc(COc2ccccc2)n1C,–,"inconclusive [inhibitor, single point]"
COc1cccc(CNC(=O)COCc2cc(-c3ccc4c(c3)OCO4)on2)c1,–,"inconclusive [inhibitor, single point]"
CC(=O)c1ccc(S(=O)(=O)NC2CCCCCCC2)cc1,–,"inconclusive [inhibitor, partial curve]"

# — PubChem BioAssay AID686979 (National Center for Advancing Translational Sciences (NCATS), 2013)
